From ChEMBL document CHEMBL4888484, “Replenishing the malaria drug discovery pipeline: Screening and hit evaluation of the MMV Hit Generation Library 1 (HGL1) against asexual blood stage Plasmodium falciparum ,using a nano luciferase reporter read-out” (2022) come the findings set out here.

Molecules are shown by their SMILES. Screen size: about 150,000 compounds; about 540 (0.36%) showed an effect of 50% or more. Some of the results follow.

For the experiment, the system named is Plasmodium falciparum. The experiment can be described thus: Primary screen in NF54 nanoGlo assay, in single point, at 2uM, 72h; a lower Z score goes with more inhibition. It counts as functional, Erythrocyte. The settings on record: timepoint 72 hour.
For orientation: % Inhibition means the change of the read-out against control, counted positive when it falls. As for `CC(C)Cn1nccc1-c1nc([C@@H](C)CNC(=O)OC(C)(C)C)no1`, the “% Inhibition” value is on record as -6% and the Z score came out at 1.04.
For `COc1ccccc1NC(=O)N1CCC2(CC1)NC(=O)c1cc(Cl)ccc1N2C` the same measures were -2% and 0.28.
For `CC1CNCCN1C(=O)C1CCN(c2ccc(F)c(F)c2)C1=O` (centres undefined) the same measures were -4% and 0.54.
On the same counts, the results for `COC(=O)c1nc(NC(=O)CCc2c(C)n[nH]c2C)sc1C` are -9% and 1.1.
Turning to `COCCN1CN(c2nccc(C(F)(F)F)n2)CC1=O`, the “% Inhibition” value was -3% and the Z score is 0.29.
For `O=C1C[C@H](c2nc(-c3ccc(N4CCOCC4)cc3)no2)CN1C1CCCC1` the same measures were -6% and 0.78.
On the same counts, the results for `CCOc1ccc(NC(=O)CCc2ccc3[nH]cnc3c2)cc1` are -16% and 2.17.
On the same counts, the results for `C[C@@H](c1ccccn1)N(C)Cc1ccc(C(=O)N(C)C)[nH]1` are -7% and 1.23.
With `Cc1ccc([C@H](CNC(=O)c2cccc(N3C(=O)CCS3(=O)=O)c2)N2CCCCC2)cc1`, the “% Inhibition” value came to 7% and the Z score is -1.19.
On to `CCC1=C(C(=O)Nc2ccccc2)C2CCCC3(C2)N(C(=O)c2ccn(CC)n2)CCCN13` (centres undefined), for which the “% Inhibition” value worked out at 5% and the Z score is -0.59.
For `O=C(NCC[C@H]1CCc2ccccc2N1)c1ccsc1Cl` the same measures were 12% and -1.51.
For `CN1C(=O)CC(C(=O)Nc2cc[nH]n2)C1c1ccc(Cl)c(F)c1` (centres undefined), the “% Inhibition” value was -18% and the Z score is recorded as 2.07.
For `COC(=O)C[C@H](NC(=O)NCc1ccc(N2CCCC2=O)cc1)c1ccccc1Cl` the same measures were 4% and -0.82.
For `O=C(COc1ccc(Cl)cc1Cl)Nc1nnc(Cc2nnc(NC(=O)COc3ccc(Cl)cc3Cl)s2)s1`, the “% Inhibition” value was found to be 2% and the Z score was -0.37.
For `CCn1nc(C)n2cc(S(=O)(=O)NCc3ccc(F)cc3F)cc2c1=O` the same measures were 11% and -1.37.
As to `COCCN(CC(=O)O)C(=O)c1nccnc1C(=O)N1CCCCC1`, the “% Inhibition” value was -18% and the Z score amounted to 1.89.
On the same counts, the results for `C[C@@H](C(=O)N1CC(=O)Nc2ccccc21)N1CCCCCC1` are 0% and -0.04.
On the same counts, the results for `CN=C(NC)NCc1c(F)cccc1F` are -3% and 0.42.
On the same counts, the results for `OC1(c2ncn(CCOc3cc(Cl)cc(Cl)c3)n2)CCC1` are -3% and 0.47.
Take `CNc1ncccc1C(=O)N[C@H](c1ncnn1C)C(C)C`: the “% Inhibition” value is reported as -3% and the Z score was determined as 0.46.
For `O=S(=O)(c1ccc(Cl)cc1)N1CCN(C2CCCC2)CC1` the same measures were 32% and -1.3.
In the case of `O=C(O)c1ccc(/N=C(\NCCc2ccccc2)N2CCN(C3CCCCC3)CC2)cc1`, the “% Inhibition” value is -13% and the Z score is 1.28.
For the molecule `O[C@@H](CNc1ccc2ccc(F)cc2n1)CN1CCOCC1`, the “% Inhibition” value is given as -5% and the Z score is 0.87.
For `O=C(c1ccn(C(F)F)n1)N1CCCC[C@@H]1CCc1ccccc1` the same measures were -8% and 1.61.
For `Cc1cccc2cc(-c3noc(-c4ccccc4)n3)c(NCCc3ccccn3)nc12` the same measures were 0% and -0.01.
On the same counts, the results for `CC(O)C1CCCCN1S(C)(=O)=O` (centres undefined) are 7% and -0.87.
`O=c1nc(-c2ccccc2)ccn1CCOCC(F)(F)C(F)F`: the “% Inhibition” value is given as -21% and the Z score was determined as 2.85.
With `COc1cc(CC(=O)NCc2nnc3nc(C)cc(C)n23)ccc1C`, the “% Inhibition” value was -11% and the Z score was found to be 1.87.
For `CC(NC(=O)c1ncccc1Br)C1CCOC1` (centres undefined) the same measures were -12% and 1.2.
For `CN(C)Cc1cccc(CCNC(=O)c2cc[nH]c2C2CCC2)c1` the same measures were -10% and 1.87.
Consider `N#Cc1ccccc1Oc1ccc(C(=O)Nc2ccccc2)nn1`, for which the “% Inhibition” value is recorded as -4% and the Z score is on record as 0.66.
`COc1ccc(C(OC)C(C)NC(=O)Cc2c(C)[nH]c3ccnn3c2=O)cc1` (centres undefined): the “% Inhibition” value stood at 36% and the Z score is -4.83.
For `CC(C)Cc1nc(CN(C)c2nc(-c3ccncc3)nc3c2CNC3)no1` the same measures were 1% and -0.23.
For `O=C(NCCc1ccco1)Nc1cc(C(=O)N2CCCCC2)ccc1Cl` the same measures were -21% and 1.93.
For `CCN(C)c1ccccc1NS(=O)(=O)c1sccc1OC` the same measures were 31% and -3.51.
In the case of `Cc1noc(CCC(=O)N2CC3(CCCC3)c3cccc(Cl)c32)n1`, the “% Inhibition” value worked out at 0% and the Z score is 0.07.
In the case of `C[C@@H]1CN(C(=O)c2coc(COc3ccc(F)cc3Cl)n2)C[C@H](C)O1`, the “% Inhibition” value is -16% and the Z score was determined as 1.41.
With `CN(CCC(C)(C)O)c1nccc(C2CCCC2)n1`, the “% Inhibition” value is on record as -2% and the Z score is recorded as 0.39.
On the same counts, the results for `O=C1[C@@H]2C(c3ccc(Cl)cc3Cl)=NO[C@@H]2C(=O)N1C1CCCCC1` are -10% and 1.27.
For `COc1ccccc1/N=C(/NC(=O)c1cccc(C)c1)N1CCN(C2CCCCC2)CC1`, the “% Inhibition” value is 1% and the Z score was -0.12.
For the molecule `COCc1nc(Cn2ccc3ncccc3c2=O)no1`, the “% Inhibition” value is listed as -21% and the Z score amounted to 2.
Turning to `COc1cc(NS(=O)(=O)c2ccc3c(c2)CCN3S(C)(=O)=O)cc(OC)c1`, the “% Inhibition” value is -10% and the Z score was found to be 1.24.
